The results in this text go back to PMC4336329 (PLoS ONE, 2015).

Screen size: about 310,000 compounds; about 2,200 (0.71%) showed an effect of 50% or more. Effects have a minus sign here. Some of the results follow.

Sequence of human ether-à-go-go-related gene (hERG) potassium channel (Q12809 whole entry, looked up): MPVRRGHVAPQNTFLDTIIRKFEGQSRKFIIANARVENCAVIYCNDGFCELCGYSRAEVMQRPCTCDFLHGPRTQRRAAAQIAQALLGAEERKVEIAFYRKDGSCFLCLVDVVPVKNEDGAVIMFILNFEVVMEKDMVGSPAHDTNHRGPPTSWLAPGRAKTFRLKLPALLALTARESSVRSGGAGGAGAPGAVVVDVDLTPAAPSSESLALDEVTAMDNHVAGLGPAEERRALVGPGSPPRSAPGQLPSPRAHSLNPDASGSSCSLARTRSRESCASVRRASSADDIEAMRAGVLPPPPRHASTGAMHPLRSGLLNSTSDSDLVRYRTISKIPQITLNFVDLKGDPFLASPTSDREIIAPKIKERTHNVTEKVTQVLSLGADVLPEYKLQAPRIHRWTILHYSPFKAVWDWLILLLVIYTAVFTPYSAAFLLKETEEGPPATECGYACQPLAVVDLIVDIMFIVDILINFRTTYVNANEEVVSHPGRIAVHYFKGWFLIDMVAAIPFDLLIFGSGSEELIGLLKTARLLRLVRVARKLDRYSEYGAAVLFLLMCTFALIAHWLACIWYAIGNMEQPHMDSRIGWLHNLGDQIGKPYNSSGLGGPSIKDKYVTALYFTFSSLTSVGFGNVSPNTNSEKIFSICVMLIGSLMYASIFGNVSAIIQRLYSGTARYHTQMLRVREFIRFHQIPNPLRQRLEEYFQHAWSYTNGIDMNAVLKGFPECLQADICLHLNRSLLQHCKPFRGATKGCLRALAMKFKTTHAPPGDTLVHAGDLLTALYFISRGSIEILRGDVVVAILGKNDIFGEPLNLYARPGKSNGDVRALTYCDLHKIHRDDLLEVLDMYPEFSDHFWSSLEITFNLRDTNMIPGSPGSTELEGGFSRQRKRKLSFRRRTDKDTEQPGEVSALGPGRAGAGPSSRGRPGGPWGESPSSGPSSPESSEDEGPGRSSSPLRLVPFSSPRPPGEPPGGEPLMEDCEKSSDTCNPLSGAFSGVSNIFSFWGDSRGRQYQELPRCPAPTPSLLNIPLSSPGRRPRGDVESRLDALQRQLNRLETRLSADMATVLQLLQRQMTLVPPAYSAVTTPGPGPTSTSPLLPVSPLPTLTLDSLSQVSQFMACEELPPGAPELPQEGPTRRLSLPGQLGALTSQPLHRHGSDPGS

The assay addresses human ether-à-go-go-related gene (hERG) potassium channel (human, UniProt Q12809). The assay can be described thus: primary screen, population patch clamp on CHO cells stably expressing hERG.
In the case of `CCCc1[nH]n(-c2nc3ccccc3s2)c(=O)c1C=NCCCN(CC)CC`, the “hERG current change (%, negative = inhibition) at 1uM” value is recorded as -57.6%. To `CCC(Oc1ccccc1)C(=O)NC1CCCCCC1` (centres unmarked) belongs 8.64%; to `O=C(NCc1ccccc1OC(F)(F)F)C1CCC(=O)N(CCc2ccccn2)C1` (centres unmarked), 6.11%; to `O=S(=O)(NCCCN1CCN(c2ccccc2F)CC1)c1cccc2cccnc12`, -11.9%. The figure for `C=CCn1c(SCC(=O)N2CCCCC2)nc(O)cc1=O` is 4.63%; for `C=CCn1c(C)cc(C2=NNC(=Nc3ccc(C)cc3)SC2)c1C` it is 8.24%; for `COc1ccccc1-n1c(CNC(=O)c2ccco2)nnc1SCC(=O)Nc1ccc(F)cc1` it is 5%.

Consider `COc1ccccc1OCCNC(=O)C(CCSC)NC(=O)c1ccccc1Cl` (centres unmarked), for which the “hERG current change (%, negative = inhibition) at 1uM” value was 5.88%. For `COC(=O)c1cccc(Oc2nc3c(c(=O)n(C)c(=O)n3C)n2C(C)C)c1`, the “hERG current change (%, negative = inhibition) at 1uM” value is 6.15%. To `CCN=c1scc(-c2ccc(F)cc2)n1/N=C/c1ccccn1` belongs 11.2%; to `CS(=O)(=O)N(Cc1ccccc1)c1ccc(C(=O)Nc2cccnc2)cc1`, 1.83%. With `COc1ccc(Nc2cc(=O)n(C3CCCCC3)c(=O)[nH]2)c(OC)c1`, the “hERG current change (%, negative = inhibition) at 1uM” value amounted to 7.36%. The figure for `COC(=O)c1ccc(NC(=O)COc2coc(CN3CCc4ccccc43)cc2=O)cc1` is 7.9%; for `CCCCc1nc(Cl)c(C#N)c2c1CCCC2` it is 5.82%; for `O=C(COc1cc2oc(=O)c3c(c2cc1Cl)CCC3)NCc1ccncc1` it is 9.1%. The figure for `Cn1c(SCC(=O)NC(C)(C)C)nnc1-c1cccc(NC(=O)c2ccccc2F)c1` is 4.89%; for `N#Cc1c(-c2ccco2)cc(-c2ccccn2)nc1N` it is 10.6%. The figure for `Cn1c(C(=O)N2CCc3ccccc3C2)cc2oc3ccccc3c21` is 15%. For `CSc1ccc(NC(=O)NCc2cccnc2)cc1`, the “hERG current change (%, negative = inhibition) at 1uM” value is on record as 16.4%. To `CCCC[N+]12CCC(CC1)C(=C(c1ccccc1)c1ccccc1)C2.[Br-]` belongs -43.7%. In the case of `CCN(C(=O)COC(=O)CSc1ccc(C(N)=O)cc1[N+](=O)[O-])C1CCCCC1`, the “hERG current change (%, negative = inhibition) at 1uM” value was found to be 4.2%. To `CCOC(=O)CNC(=O)CSc1nnc(-c2ccccc2)c(-c2ccccc2)n1` belongs 16.3%; to `COc1ccc(CNC(=O)CN2C(=O)CSc3ccc(S(=O)(=O)N4CCOCC4)cc32)c(OC)c1`, 13.1%. The figure for `O=C(Nc1ccnn1C1CCN(CCCC2CCCC2)CC1)c1ccccc1Cl` is -99%; for `COc1ccc(NC(=O)CSCC(=O)N=c2sccn2C)cc1` it is 7.94%; for `CSCC(O)Cn1ncc2ccccc2c1=O` (centres unmarked) it is 11.8%. With `CCOc1ccccc1NC(=O)CN1C(=O)COc2ccc(S(=O)(=O)N3CCOCC3)cc21`, the “hERG current change (%, negative = inhibition) at 1uM” value came to 5.42%. The figure for `CCC(/C=N/NC(=O)C(N)=O)CC` is 15.8%.

For `CC(C)CNC(=O)c1cc(-c2ccc(Cl)c(Cl)c2)on1`, the “hERG current change (%, negative = inhibition) at 1uM” value came out at 3.97%. Consider `OCCC1CN(Cc2ccc(-n3cccn3)cc2)CCN1Cc1ccccc1` (centres unmarked), for which the “hERG current change (%, negative = inhibition) at 1uM” value is -28.5%. To `CCn1c(CC(=O)Nc2ccc(C)cc2)nnc1SCC(=O)N1CCN(c2ccccc2)CC1` belongs 7.87%. On to `O=C(CSCCO)N1CCc2ccccc21`, for which the “hERG current change (%, negative = inhibition) at 1uM” value is -7.03%. The figure for `Cc1cc(NCCCN(C)C)n2nc(-c3cccs3)cc2n1` is 0.952%; for `COc1cc(C(C)=O)ccc1OCC(O)CN1CCN(c2ccccc2)CC1` (centres unmarked) it is 1.08%. To `COc1ccccc1-n1cnc2cc(NCc3ccccc3O)ccc21` belongs 6.52%; to `CC(C)c1ccc(Nc2nnc(SCC(=O)Nc3ncc(S(=O)(=O)c4ccc([N+](=O)[O-])cc4)s3)s2)cc1`, 5.87%.

As to `CCOC(=O)c1c(N/N=C/c2ccncc2)n[nH]c1C`, the “hERG current change (%, negative = inhibition) at 1uM” value turned out to be 0.746%. Take `CCCCN(C(=O)c1ccc2c(c1)OCO2)c1ccccc1`: the “hERG current change (%, negative = inhibition) at 1uM” value was found to be 11%. To `Cc1ccc2c(c1)N(C(=O)CCC(=O)NCCCN1CCOCC1)CCO2` belongs 13.9%; to `COc1ccc(N2CCN(S(=O)(=O)c3ccc4c(c3)N(C(C)=O)CCO4)CC2)cc1`, 12.6%; to `COc1ccc(O)c(/C=N/NS(=O)(=O)c2ccc(C)cc2)c1`, 13%. For `O=C(COC(=O)COc1ccc(Cl)cc1)NC1CCS(=O)(=O)C1` (centres unmarked), the “hERG current change (%, negative = inhibition) at 1uM” value is given as 5.83%. Take `O=C(O)c1[nH]c2ccccc2c1-c1ccccc1`: the “hERG current change (%, negative = inhibition) at 1uM” value is 0.536%. To `CC(Nc1oc(-c2ccco2)nc1C#N)c1ccccc1` (centres unmarked) belongs 17.2%; to `CCCC(CCC)C(=O)Nc1ccc2c(c1)N(C(=O)CN1CCN(C)CC1)c1ccccc1CC2`, 3.33%. Regarding `COC(=O)c1ccccc1OS(=O)(=O)N(C)C`, the “hERG current change (%, negative = inhibition) at 1uM” value amounted to 14.2%. As to `O=S(=O)(NCc1ccc(F)cc1)c1ccc(-n2cnnn2)cc1`, the “hERG current change (%, negative = inhibition) at 1uM” value came to 13.9%. The figure for `CCc1nc2nc(C)c(NS(=O)(=O)c3ccc(C4CCCCC4)cc3)c(=O)n2[nH]1` is 13.5%. To `COc1cc(-c2cc(OC)c3c(C)oc(C)c3c(=O)c2)ccc1O` belongs 3.44%; to `O=C(CCN1CCN(CC(=O)Nc2ccccc2F)CC1)Nc1ccccc1F`, -38.4%; to `O=C(NCC(c1ccco1)N1CCCC1)c1ccc(S(=O)(=O)Nc2ccccc2Cl)cc1` (centres unmarked), 6.69%. The figure for `CCOc1cc(-c2cc(-c3ccc(OC)cc3)nc(N)c2C#N)ccc1O` is -1.14%. For `CCOC(=O)c1c(C)[nH]c(C)c1C(=O)CSc1nc2ccccc2[nH]1`, the “hERG current change (%, negative = inhibition) at 1uM” value is 13.8%. The figure for `Cc1[nH]nc2c1C1(CCOC1C)C(C#N)=C(N)O2` (centres unmarked) is 14.9%; for `c1ccc(-c2n[nH]c3ccccc23)cc1` it is 11.4%. The figure for `COc1ccc(OC)c(NC(=O)C(=O)c2cn(CC(=O)N3CCCC3)c3ccccc23)c1` is 15.5%; for `Cc1cc(NC(=O)CN2CCN(c3ccc(O)cc3)CC2)no1` it is 1.35%; for `CCSc1nnc(N(CCC(=O)O)CCC(=O)O)s1` it is 3.87%. For `O=C(CN1CCN(CC(=O)Nc2cccc(F)c2)CC1)Nc1ccc(-c2ccccc2)cc1`, the “hERG current change (%, negative = inhibition) at 1uM” value is on record as 13.6%.

In the case of `Cc1ccc(C)c(S(=O)(=O)/N=C2\C=C(NS(=O)(=O)c3ccccc3)C(=O)c3ccccc32)c1`, the “hERG current change (%, negative = inhibition) at 1uM” value is listed as 5.4%. As for `CCNC(=O)CSc1nnc(CN2CCCCCC2=O)n1-c1ccccn1`, the “hERG current change (%, negative = inhibition) at 1uM” value is given as 17.1%. To `Cl.O=c1[nH]oc2c1CCNC2` belongs 11.8%; to `Cc1c(C)c2c(OCC(=O)NCCCO)cc3c(c2oc1=O)CCC(C)(C)O3`, 13.9%; to `CCCCCc1nc2sc3c(c2c(=O)n1N)CCC3`, 11.3%. For the compound `COc1ccc(Br)cc1CSC(=N)N.Cl`, the “hERG current change (%, negative = inhibition) at 1uM” value turned out to be 7.17%. The figure for `CCOc1ccc(CCNC(=O)C2CCN(S(=O)(=O)N3CCC(C)CC3)CC2)cc1OCC` is 9.47%.

Consider `COn1c2c(c3c4nonc4ccc31)CCCC2`, for which the “hERG current change (%, negative = inhibition) at 1uM” value was -7.45%.

Regarding `OCCN1CCN(c2nc(-c3ccccc3)c3cc(Cl)ccc3n2)CC1`, the “hERG current change (%, negative = inhibition) at 1uM” value is 9.67%. The figure for `COc1ccc(S(=O)Cc2ccc(C(=O)NCc3cccc(OC)c3)o2)cc1` (centres unmarked) is 9.34%. `Cc1ccc(C)c(NC(=O)COc2coc(CN3CCc4ccccc43)cc2=O)c1`: the “hERG current change (%, negative = inhibition) at 1uM” value stood at 14.3%. The figure for `CC(=O)Nc1nc2ccccc2n1Cc1ccccc1Cl` is -1.44%. Consider `O=C(NNC(=O)c1ccccc1F)c1cccc(Cl)c1`, for which the “hERG current change (%, negative = inhibition) at 1uM” value is given as 11.5%. The figure for `Cc1cc(C)c(C)c(S(=O)(=O)N2CCCN(C)CC2)c1C` is 12.8%; for `O=c1cc(Cl)c(-c2ccccc2)n[nH]1` it is 10.3%. To `NC(=O)Nc1ccc(C(=O)N2CCN(S(=O)(=O)Cc3ccccc3)CC2)cc1` belongs 11.9%.

As for `Cn1c2c(c(=O)n(C)c1=O)C(c1ccc(Cl)cc1)C(C#N)=C(N)O2` (centres unmarked), the “hERG current change (%, negative = inhibition) at 1uM” value was -2.65%. To `N#C/C(=C/c1cn(CC(=O)O)c2ccccc12)C(=O)NCc1ccccc1` belongs 12%. To `CN1CCc2nc3sc(C#N)c(N)c3c(-c3cccs3)c2C1` belongs -41%; to `O=C(/C=C/c1ccccc1)NNC(=O)C1CC1`, -1.98%.

`NC(=O)c1cc([N+](=O)[O-])ccc1NCC1CCCCC1`: the “hERG current change (%, negative = inhibition) at 1uM” value amounted to 5.53%. The figure for `CCCCn1c(CN2CCN(C)CC2)nc2ccccc21` is -31.4%.

Turning to `CCC(OC(=O)c1cccs1)C(=O)NCc1ccc2c(c1)OCO2` (centres unmarked), the “hERG current change (%, negative = inhibition) at 1uM” value came out at 11%. For `CN(C)C(CNC(=O)c1cccs1)c1ccco1` (centres unmarked), the “hERG current change (%, negative = inhibition) at 1uM” value was determined as 10.3%. To `CC(O)C(O)C(O)C(O)/C=N/NC(=O)c1ccccc1` (centres unmarked) belongs 11.3%; to `COc1ccc(CC(=O)NCc2ccccc2)cc1`, 11.8%.

In the case of `COc1ccc(-n2nc(C(=O)NCC(=O)N(C)Cc3ccccc3)c3ccccc3c2=O)cc1`, the “hERG current change (%, negative = inhibition) at 1uM” value turned out to be 14%.

For the compound `O=C(COc1ccc(Br)cc1)N(Cc1ccccc1)c1ccccn1`, the “hERG current change (%, negative = inhibition) at 1uM” value was found to be 11.4%. To `NC(=O)Cc1ccc2c(c1)[nH]c1ccccc12` belongs 12.4%.

Turning to `COC(=O)c1[nH]c2ccc(C)cc2c1NC(=O)CN1CCC(C)CC1`, the “hERG current change (%, negative = inhibition) at 1uM” value is listed as 18.2%. For `CCOC(=O)N1CCC(N2C(=O)c3ccccc3C2Nc2ccc(S(=O)(=O)N(CC)CC)cc2)CC1` (centres unmarked), the “hERG current change (%, negative = inhibition) at 1uM” value is -3.48%. The figure for `Cc1ccc(Nc2c3c(nc4ncnn24)CCC3)cc1` is 6.04%.

`CC1CCCC(NC(=O)Cn2cc([N+](=O)[O-])ccc2=O)C1C` (centres unmarked): the “hERG current change (%, negative = inhibition) at 1uM” value came to 4.41%.
